Data reported in publication PMC5319980, “Mutant Analysis Reveals Allosteric Regulation of ClpB Disaggregase” (Frontiers in Molecular Biosciences, 2017).

Biological target: the molecule itself
Experiment: cross-linking; 1 µM ClpB in Reaction Buffer B (50 mM HEPES pH 7.5, 25 mM KCl, 5 mM MgCl2, 2 mM DTT), 25°C, 5 min with ATPγS, then 0.1% glutaraldehyde; stopped after 2 and 10 min with 1 M Tris pH 7.5; SDS-PAGE (4-15%), Sypro Ruby staining

Row | Protein | binding result
1 | ClpB-A328I (natural protein, ClpB of E. coli with the AAA-1 subunit interface mutation A328I, made by PCR mutagenesis in pDS56; source: E. coli ΔclpB::kan cells, overproduced from pDS56, purified (Ni-IDA, size exclusion chromatography Superdex S200)) not shown | binds
2 | ClpB-A328L (natural protein, ClpB of E. coli with the AAA-1 subunit interface mutation A328L, made by PCR mutagenesis in pDS56; source: E. coli ΔclpB::kan cells, overproduced from pDS56, purified (Ni-IDA, size exclusion chromatography Superdex S200)) not shown | binds
